# Source: PubChem BioAssay AID686979 (National Center for Advancing Translational Sciences (NCATS), 2013)
# Where “and” joins values, the source holds several entries; their conditions need not be identical. Equal values may be shown once. Among all 420,000 compounds or so, about 50,000 (12%) were called active. Inconclusive results, whose numbers are uncertain, are shown with a selection of clear calls. The call rests on the fitted dose curve; in most records, active means well fitted inhibition curve with a large enough effect; inconclusive means small, poorly fitted or top-dose-only effect; inactive means flat fitted curve, though single readings scatter. Where the call is inconclusive, the potency comes from a doubtful curve fit.
# Test: qHTS for Inhibitors of human tyrosyl-DNA phosphodiesterase 1 (TDP1): qHTS in cells in presence of CPT; further: nearly all actives have a fitted effect of over 55% in size
# Conditions: chicken DT40 Tdp1-/-;hTDP1 cells + 20 nM CPT, ATP luminescence, 48 h; activity change, negative = growth inhibition: at 46.2 µM (top of the series)
# Outline: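 Cell growth measured by CellTiter-Glo luminescence after a minimum 48 h, 37 C compound exposure with 20 nM CPT in Tdp1-knockout DT40 cells stably expressing hTDP1, seeded 400/well; qHTS titration format.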
# On the % scale 0 is the no-effect control and ±100 the full control effect; potency means the concentration at half of the fitted maximal effect; tags describe the fitted curve by direction and shape.
SMILES,Potency,"activity change, negative = growth inhibition"
Cc1cccc(OCCCC(=O)Nc2sc3c(c2C(N)=O)CCC(C)C3)c1 (stereo not drawn),"inconclusive: 7.31 µM [inhibitor, partial curve]",–
Cn1cc(CC(=O)Nc2cccc(C#N)c2)c2ccccc21,inactive,–
OC(COc1ccccc1)CN1CCCCC1 (stereo not drawn),inactive,–
Oc1ccccc1Nc1nc(-c2ccccc2)c2cc(Cl)ccc2n1,"inconclusive: 20.6 µM [inhibitor, single point]",–
O=C(CSCC(=O)Nc1cccc2ccccc12)Nc1cccc2ccccc12,"inconclusive: 29.1 µM [inhibitor, single point]",–
O=C(CSc1nc2nccnc2c(=O)n1CCc1c[nH]c2ccccc12)Nc1ccccc1F,active: 10.3 µM,–
O=C(CSc1nc2ccccc2n1Cc1ccccc1Cl)N/N=C/c1ccccc1C(=O)O,"inconclusive: 20.6 µM [inhibitor, single point]",–
CC1CC(C)CN(C(=O)Cn2cc(C=O)c3ccccc32)C1 (stereo not drawn),inactive,–
COc1cc(NC(=O)c2ccc(C(C)(C)C)cc2)c(OC)cc1NC(=O)CN1CCCCC1,"inconclusive: 29.1 µM [inhibitor, single point]",–
O=C1CS(=O)(=O)C2(C(=O)N(Cc3cccc(F)c3)c3ccccc32)N1c1ccccc1 (stereo not drawn),"inconclusive: 29.1 µM [inhibitor, single point]",–
COc1cc(=O)n2c(c1C(=O)NC(C)c1ccco1)CCN(C(=O)c1cn3ccc(C)cc3n1)CC2 (stereo not drawn),inactive,–
O=C1NN(c2cccc(Br)c2)C(=O)/C1=C\c1ccc(N2CCOCC2)cc1,inactive,–
Cc1ccc(C)c(NC(=O)CSc2nc(=O)n(CCN3CCOCC3)c3c2CCCC3)c1,inactive,–
COc1cccc(-c2ccc3ncnc(N4CCN(C)CC4)c3c2)c1,active: 13 µM,–
CC(C)(C)OC(=O)C[C@H]1C/C=C\C[C@@H](CC(=O)NCCO)C(=O)NC[C@@H](c2ccccc2)OC1=O,inactive,–
[O-][N+](=Cc1ccccc1)c1ccc(Cl)cc1,active: 6.51 µM,–
CCCC(=O)N(CCc1ccc(OC)cc1)Cc1nc2ccccc2c(=O)[nH]1,inactive,–
N#CC(C#N)=C(N)CSc1cccc[n+]1[O-],"inconclusive: 29.1 µM [inhibitor, single point]",–
CNc1nc(N2CCCN(C)CC2)nc2cc(OC)c(OC)cc12,active: 14.1 µM,–
CN(CC(=O)Nc1ccccc1C(F)(F)F)C(=O)C1CCN(S(=O)(=O)c2ccc3c(c2)OCCO3)CC1,"inconclusive: 25.9 µM [inhibitor, single point]",–
CC(=O)c1cccc([N+](=O)[O-])c1,inactive,–
O=[N+]([O-])c1ccc(N=Cc2sc3ccccc3c2O)cc1,inactive,–
Cc1ccsc1C(=O)N1CCCC(N(C)Cc2ccccc2)C1 (stereo not drawn),inactive,–
CCOc1ccc(CCNC(=O)CCc2c(C)nc3c(c(C)nn3-c3ccccc3)c2C)cc1OCC,active: 14.6 µM,–

SMILES,Potency,"activity change, negative = growth inhibition"
COc1ccccc1C(=O)NCCSCc1ccccc1Cl,inactive,–
COc1cc(C2C3=C(CC(C)(C)CC3=O)OC(N)=C2[N+](=O)[O-])ccc1O (stereo not drawn),"inconclusive: 29.1 µM [inhibitor, single point]",–
CSc1nc(N)c2ncn([C@H]3O[C@H](COP(=O)(O)OP(=O)(O)O)[C@@H](O)[C@@H]3O)c2n1,"inconclusive: 33.5 µM [inhibitor, single point]",–
OCc1cn(-c2ccccc2)nc1-c1ccco1,"inconclusive: 2.91 µM [inhibitor, partial curve]",–
C/C(Cn1nnc2ccccc21)=N\NC(=O)c1cccc(Br)c1,inactive,–
CCCCCCn1c(CN2CCN(C)CC2)nc2c1c(=O)n(C)c(=O)n2C,"inconclusive: 20.6 µM [inhibitor, single point]",–
Cc1nc(SCC(=O)Nc2nnc(C(C)C)s2)n[nH]1,inactive,–
c1ccc(-c2nc3ccccc3[nH]2)nc1,"inconclusive: 20.6 µM [inhibitor, single point]",–
COC(=O)c1ccc(NC(=O)Cc2ccc(F)cc2)cc1,–,inconclusive: -34.5% [inhibitor]
Cc1cccc(N2CCN(C(=O)c3c(-c4ccccc4)noc3C)CC2)c1C,active: 2.91 µM,–
Cc1[nH]c2ccc(-c3nnc(SCC(=O)NCc4ccco4)n3Cc3ccccc3)cc2c1C,"inconclusive: 29.1 µM [inhibitor, single point]",–
COc1ccc(C(c2nnnn2Cc2ccccc2)N2CCN(C(=O)c3ccco3)CC2)cc1 (stereo not drawn),inactive,–
C=CCn1c(SCC(=O)NCc2ccco2)nnc1-c1ccc2ccccc2n1,"inconclusive: 23.1 µM [inhibitor, single point]",–
O=C(O)c1cc2n(n1)C(C(F)(F)F)CC(c1ccco1)N2 (stereo not drawn),inactive,–
O=c1oc2ccc(Br)cc2cc1-c1nc2c(s1)CCc1ccccc1-2,"inconclusive: 11.2 µM [inhibitor, single point]",–
CCn1ccnc1CN1CCCC(C(=O)c2ccc3cc(OC)ccc3c2)C1 (stereo not drawn),active: 2.91 µM,–
Cc1ccc(C2CC(=O)N(Cc3ccccc3F)c3c2c(C)nn3-c2nc(C)cc(C)n2)cc1 (stereo not drawn),"inconclusive: 29.1 µM [inhibitor, single point]",–
CC1(C)C(=O)Nc2ccccc2N1C(=O)COC(=O)c1ccc([N+](=O)[O-])o1,"inconclusive: 23.1 µM [inhibitor, single point]",–
CC(C)[C@H](NS(=O)(=O)c1ccccc1)C(=O)OCc1cc([N+](=O)[O-])cc2c1OCOC2,inactive,–
O=C(NCCO)c1cccc(Nc2nc(-c3ccccc3)c3cc(Cl)ccc3n2)c1,"inconclusive: 16.4 µM [inhibitor, single point]",–
CN(C[C@H](c1ccccc1)N(C[C@H](Cc1ccccc1)N(CCc1ccccc1)N=O)N=O)N=O,active: 18.4 µM,–
O=[N+]([O-])c1ccc(C(O)C23CN4CN(CN(C4)C2)C3)cc1 (stereo not drawn),"inconclusive: 9.2 µM [inhibitor, partial curve, poor fit]",–
c1csc(CNc2ccnc(-c3ccoc3)n2)c1,"inconclusive: 20.6 µM [inhibitor, single point]",–
CCCCCCCCCCCCN1[C@@H](CC(=O)OC)c2cc(F)ccc2S1(=O)=O,"inconclusive: 35.5 µM [inhibitor, single point] and inconclusive: 16.4 µM [inhibitor, single point]",–
